Sequences with one replicate were seen in a single cluster, so their values are uncertain.
Tested on: ATP
Test: switch fluorescence ratio, 500 uM ATP over buffer (Cy3 cluster intensity, sum of 5 cycles each) (fold (ratio)); higher = stronger signal-on switching upon ATP binding; sequences stand for … in TCGTCGGCAGCGTCAGATGTGTATAAGAGACAGTTTTTTTTTTTTTTTTTTTTTTTTT…TC
Settings: aptamer strand: ATP DNA aptamer (quencher-CACCTGGGGGAGTATTGCGGAGGAAGG + anchor), 100 nM annealed; ATP concentration: 500 uM; one replicate
Outline: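 The quencher-labelled ATP aptamer, at 100 nM, was annealed to Cy3-labelled switching-strand clusters on a modified Illumina MiSeq flow-cell. The clusters were imaged in selection buffer, then after 15 min with 500 uM ATP at 22 °C, and this buffer/ATP cycle ran five times with NaOH stripping and re-annealing between runs. Per-cluster fluorescence ratios, summed target-cycle over summed buffer-cycle Cy3 intensity, were averaged per switch-domain sequence. Clusters outside 100-1000 RFU were excluded.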
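Further: ATP exposure 15 min at 22 °C before imaging.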

Sequence	switch fluorescence ratio
AAACGAATCT	1.02
GAAATCGAGT	0.943
GTTTTGGTCT	1
AGCTTGAACT	1.02
CGGGTTATCA	0.94
GCATTATTAT	0.992
ATCATAGGAG	0.975
AAGCCGGGAA	0.999
GTCCTAGGCA	0.983
GCGAGTGGTG	1.01
CAACCTTTCC	2.96
TTCTCTGAGT	0.936
CGATATGTGT	0.983
GCACGTAGGT	1.27
CAACCACCTT	1.27
TGTAGGCATC	0.981
TTACTGGTCT	1.03
GCTAGCCAGC	1.04
AATCACGCAG	0.993
AATTACGGAG	1.01
AAATACACCC	1.36
TGTAGGGCAG	0.971
AATCGTTGCG	0.985
CCTGAGGCAA	3.36
TATACTTGAT	0.968
GTTAGCCAGG	1.08

Sequence	switch fluorescence ratio
GAAAACTTAT	1.06
GATTTGATAC	1.07
CTAAACGCCG	0.936
CACACGTTGC	1.06
ACCAGACATC	1.05
TAGGTCACTT	0.999
CCATCAAAGT	1.01
TGTGGGCAGG	0.942
GGACTCCTGG	0.986
TTCTGCTATA	1.19
GCCGTGAGCG	0.997
GTATTTCGTC	0.979
CTTATTCAC	0.976
GGAACAAAGG	0.99
ATGTACTGAC	1.31
CTGAGCCACT	1.04
CGGGACATTG	0.99
CATCTTGCTA	1.12
GGCTGCGTCG	1.02
ATCTGGGTCG	1.02
ATCTCGTTGG	1.02
GGGTATGAA	0.991
TATGATGAGT	1.05
GGGATCTCCT	0.975
GGTAGTGACA	0.981
CTAGGATCCT	0.973

Sequence	switch fluorescence ratio
AAATGTCTAC	1.04
GACCCTAGCA	1.09
ATGTTTCAT	0.951
AACAATTGCA	0.994
TAGTCAACTT	1.01
AATTGAGCAT	0.979
GCCCTCACGA	1.05
CCCTCGTCCG	1.19
AAGAGTCAGT	0.971
GCCGATACGT	1.04
TTGGAAATC	0.997
GTTGTGATTA	1.02
CTGTTATTCT	1.01
CCAGGTTTGA	1.09
TTAAGGATGA	0.975
TTGTAAATAA	1.09
AGGGCGCTAA	1.02
CATCACTGGT	1.03
CATAGGTCCT	1
ATGATTCTAT	0.964
ACGGGATGCA	1.08
TAGATTAACT	0.977
AGTATCATT	0.987
AGAGTGCATC	0.968
CTCGGATGAG	0.939
GTCGTTAGAA	0.967

Sequence	switch fluorescence ratio
CCCCTCAAAA	1.14
TGGATGACTA	1.01
ATGCTCAAGC	1.05
CTGCCCAGGA	1.39
AGTGTTGAGC	1.04
GGATTGGGGC	0.994
AACTTATTCC	1.16
CAACGTACCC	1.5
CATGAACTCT	1
ACGAGCACGG	1.76
TCCTAAGATT	0.969
GACTTGTAGA	1.03
TCACAGCGTC	1.14
GTTCGGAAGC	1.11
TAACTTCGGA	1.03
ATTCACATT	1.06
CATACGGTAG	0.984
TCGCCTTCGA	0.978
AATGCCTACG	1
GGAACCGCCA	1.4
CGTCAGTAGG	1.07
CTAGGAATTT	0.97
CACCGTTTGT	1.02
TGGTCTAAGA	1
CGCGAAGTAT	1
TTTCAGAGCT	1.02

Sequence	switch fluorescence ratio
TTGTGCACTA	1.02
GGCGTTAGGA	0.975
CACTCTGGTA	1.02
AAGTGGGGAA	1.06
ACCGGTGGCT	1.01
TCTTAGATAG	0.991
ATACTCATCT	1.01
AAACGGAGAA	1.03
AGTCGAACCA	1.02
ATGTACTATG	1.06
GATCATTCGA	0.977
CAACCCTTTT	0.967
AGAGTGTATT	0.998
GCCAGGGCGG	0.984
GTCGAAGC	1.05
GACCGCCGGG	1.15
AACGTGGACG	0.943
TAGGTCTTAG	0.978
GCAAGGGGTA	1.03
TCGCGGCGC	0.975
ATGCCCGTCA	1.08
CTCGTATGGG	1.03
TTCACTTGTT	1.04
TCTGGGACC	0.989
CCGCGGGAAT	1.3
TACAGGGATG	0.993

Sequence	switch fluorescence ratio
TGCCAAATGT	0.977
TCTCGTTGTG	0.996
TGGGCGCACG	1.02
ACCAGTGTGC	1.69
TGCGAACGGG	0.999
TGGATCGGGC	1.01
CCAGCCAGAT	1.03
TCCGTGGGCG	1.05
GTCAATCCCC	1.13
ACTACGCACT	2.96
ATATTGGCCT	1.1
CTTGACGGCC	0.978
TAGCGTCGTT	0.962
TCTGTTGAG	0.978
CGTGACGTG	0.961
TTACCTTCGG	0.951
GCAATTGTAA	0.961
GGGAAAAGAC	1.07
AGGATGGAA	0.952
CAATTTGTCG	0.986
CTGAGCTTTG	1
GTCCGTTGGC	1.09
CTGGGTACGA	1.07

From the supplement of paper PMC10126150
